# Measured values reported in the supplement of paper PMC4166925.
# ± gives the standard deviation of the averaged measurements. The full ranking holds about 33,000 sequences; the median of “E-score (dimensionless, -0.5 to 0.5)” is about -0.049, and the highest 2% start at about 0.37. The list shows a part of the results.
# System: T1, PmTbr T-box DNA-binding domain (GST fusion)
# T1 sequence: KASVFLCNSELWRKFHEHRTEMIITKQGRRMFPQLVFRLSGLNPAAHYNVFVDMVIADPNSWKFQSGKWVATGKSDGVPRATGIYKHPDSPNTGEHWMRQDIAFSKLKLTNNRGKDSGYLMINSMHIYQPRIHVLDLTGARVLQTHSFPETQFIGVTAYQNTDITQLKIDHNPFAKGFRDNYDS
# Test: PBM E-score of 8-mer (E-score (dimensionless, -0.5 to 0.5)); Tbr is Tbrain of the sea star Patiria miniata (Pm) or the sea urchin Strongylocentrotus purpuratus (Sp); higher = stronger binding preference; most listed sequences are background and not binding sites
# Settings: the construct has about 5 more residues each side
# How it was run: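 Each ungapped 8-mer received an enrichment E-score from the Universal PBM Analysis Suite, averaged over duplicate arrays. The proteins were Tbr T-box DNA-binding domains, covering the whole T-box plus about five flanking residues, fused to GST and expressed in BL21 E. coli at 20 °C before glutathione affinity purification. Universal Agilent oligonucleotide arrays were made double-stranded by primer extension and incubated with 200 nM protein in PBS (pH 7.5). The arrays were then scanned and quantified, and every 8-mer was scored from probe intensities.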
row,Sequence,PBM E-score of 8-mer
1,ATGGAGCG,-0.0956 ± 0.049
2,TAGTTCAA,-0.0424 ± 0.031
3,CCTATACG,0.06 ± 0.029
4,AGTGGTCG,-0.0805 ± 0.033
5,GGAGTCCC,-0.118 ± 0.05
6,AACTCACG,0.106 ± 0.047
7,TAGTGAGA,0.278 ± 0.022
8,GGGGCCGA,0.0233 ± 0.033
9,CTGTGGCA,0.0868 ± 0.03
10,TAGATCCA,-0.353 ± 0.058
11,AAGGTACT,-0.197 ± 0.047
12,ACTATCAC,0.335 ± 0.04
13,CGTGATTC,0.0514 ± 0.0056
14,ACGGGGGC,0.031 ± 0.014
15,TCGCCACA,0.289 ± 0.0067
16,CATAGTAA,-0.229 ± 0.079
17,CCTTTGAA,-0.144 ± 0.025
18,ACTCCCCT,-0.213 ± 0.088
19,CGCCACAA,0.00315 ± 0.034
20,GATCCTAC,-0.232 ± 0.0069
21,CAAAGTGC,0.249 ± 0.0043
22,AGGTGTAA,0.47639 ± 0.00041
23,ATCTCTGG,-0.134 ± 0.017
24,CGCTGGTC,0.107 ± 0.032
25,TGGTGACA,0.409 ± 0.01

row,Sequence,PBM E-score of 8-mer
1,CCAGACAG,0.00077 ± 0.00041
2,ATCGCGAT,0.38 ± 0.014
3,ATCTGGCG,0.122 ± 0.068
4,ACTCGTAA,-0.0576 ± 0.11
5,CCTGTTAG,0.271 ± 0.014
6,CCAACAGC,0.197 ± 0.048
7,GAGGCGGA,-0.0991 ± 0.032
8,AAGTACCC,-0.182 ± 0.0063
9,CATATATC,-0.239 ± 0.019
10,GCCCACGA,-0.119 ± 0.039
11,AATACCCG,-0.169 ± 0.034
12,CTGGCAAA,-0.112 ± 0.084
13,ATCTTCGA,-0.122 ± 0.046
14,GTGCGATA,0.4351 ± 0.0025
15,ACTCCAAT,-0.0298 ± 0.0073
16,GCGTGAAA,0.4552 ± 0.0024
17,TCCTCCAA,-0.203 ± 0.012
18,CTGAACTC,0.0605 ± 0.035
19,GAGTGTGC,0.2606 ± 0.00088
20,ATGACTGC,-0.165 ± 0.0095
21,ACTATGTA,0.0559 ± 0.034
22,ATGACTTG,-0.00579 ± 0.055
23,CCCCAAGC,-0.0824 ± 0.04
24,CGGCCGAG,-0.158 ± 0.0019
25,ACAACGCC,0.121 ± 0.0096

row,Sequence,PBM E-score of 8-mer
1,TCAATAGA,-0.0309 ± 0.03
2,GAGAATGC,0.0915 ± 0.015
3,CCTAGGGA,-0.233 ± 0.015
4,CACAATTC,0.282 ± 0.039
5,GAGCGCCC,-0.177 ± 0.019
6,TACATAAA,-0.175 ± 0.11
7,AGCGAGTC,0.0123 ± 0.0052
8,AGTGCAAG,0.149 ± 0.018
9,ATGGCCTC,-0.263 ± 0.037
10,AACCGAGC,-0.124 ± 0.016
11,GTACGGTA,-0.1632 ± 0.0011
12,GGCAGGAA,0.054 ± 0.081
13,ATCCGAAA,-0.0422 ± 0.023
14,ACCAAGAC,0.0491 ± 0.0073
15,GTAGGGAC,-0.259 ± 0.04
16,ACTGGTGC,0.111 ± 0.026
17,GAGGCGGC,0.00737 ± 0.076
18,TAGCCTAA,-0.0562 ± 0.0074
19,CATATGAG,-0.0783 ± 0.018
20,AGCTATAT,0.0347 ± 0.08
21,CGCTGAAA,-0.111 ± 0.018
22,CCCTTCCC,-0.226 ± 0.031
23,TCAATTCA,0.0638 ± 0.11
24,GCCTCCTA,-0.0651 ± 0.085
25,GGGCGAGA,0.194 ± 0.052

row,Sequence,PBM E-score of 8-mer
1,CTCTTCGA,0.0447 ± 0.035
2,CCGCGAGG,0.0357 ± 0.059
3,AGTCTCCC,-0.191 ± 0.04
4,AGCGGACG,-0.118 ± 0.011
5,AAAAAACC,-0.116 ± 0.029
6,TGGGACCA,-0.185 ± 0.03
7,AGAGCCAA,-0.0363 ± 0.023
8,GCTGGACA,0.0434 ± 0.024
9,CTCCATAA,-0.321 ± 0.0041
10,CTAAGACC,-0.171 ± 0.056
11,AAGTGCCG,0.289 ± 0.025
12,GCGTGCAA,0.146 ± 0.044
13,CAGGAAGC,-0.312 ± 0.045
14,AGATGTCC,-0.322 ± 0.016
15,AGTGCCAC,0.287 ± 0.014
16,AAAACCGG,-0.14 ± 0.039
17,AAGCTGGG,-0.0961 ± 0.045
18,GAGTAAAA,-0.0459 ± 0.021
19,ACTAAATG,0.0104 ± 0.0037
20,AAAACTGG,0.0465 ± 0.035
21,ACCTCGCC,0.34 ± 0.0081
22,TATACATA,-0.073 ± 0.021
23,CGAAGCAC,-0.076 ± 0.014
24,ACAGCACT,0.15 ± 0.015
25,CGGGACAC,0.16 ± 0.057

row,Sequence,PBM E-score of 8-mer
1,CAATGTTA,-0.135 ± 0.023
2,GCTTTCTA,-0.0965 ± 0.11
3,AACTAATT,-0.293 ± 0.049
4,CGTCGTTA,0.0788 ± 0.011
5,CACACAAG,0.113 ± 0.06
6,GGCGACCA,-0.156 ± 0.027
7,GGCTGTTA,0.0706 ± 0.024
8,GTAGAACA,-0.0515 ± 0.048
9,AATAGCCT,-0.00864 ± 0.017
10,ACAGCATG,0.0977 ± 0.0076
11,GCTTTAGA,-0.109 ± 0.055
12,AGGATATA,-0.188 ± 0.019
13,CCAGTGTA,-0.108 ± 0.014
14,CACACATC,0.381 ± 0.035
15,CCATCTGA,-0.00559 ± 0.0058
16,CAAGCAAA,-0.0897 ± 0.031
17,TTCAAAAA,-0.195 ± 0.071
18,TAAGCTTA,-0.274 ± 0.053
19,TGGAGACA,-0.115 ± 0.046
20,GTCGGACA,-0.198 ± 0.053
21,TCAGTTAA,-0.0558 ± 0.064
22,ACTGCATG,-0.193 ± 0.049
23,AACGCCGC,0.0722 ± 0.024
24,CCCTATAG,-0.114 ± 0.033
25,GTAGTAAC,0.0291 ± 0.046

row,Sequence,PBM E-score of 8-mer
1,GATCCAAC,0.00494 ± 0.035
2,CGTTTACC,-0.0859 ± 0.018
3,CTGAGCAG,-0.226 ± 0.037
4,CTTACAAC,0.0594 ± 0.04
5,CGGGTGAC,0.317 ± 0.0073
6,GCGACGCC,0.262 ± 0.048
7,AACTTCCT,-0.146 ± 0.014
8,CAGTAGAA,-0.0987 ± 0.033
9,CTATTCTA,-0.0358 ± 0.035
10,AGAATATG,0.00662 ± 0.0032
11,GCCGTCAC,0.293 ± 0.066
12,CACAAGGA,-0.215 ± 0.06
13,ACTGGGGG,-0.277 ± 0.017
14,AATTGCGG,-0.0866 ± 0.029
15,GTTCGAGA,0.00126 ± 0.025
16,ATAAAGCC,-0.221 ± 0.014
17,CGATAGGC,0.0593 ± 0.033
18,CTTCATCA,0.0276 ± 0.042
19,CCCGGAGA,-0.0812 ± 0.065
20,CGTGAAAA,0.338 ± 0.026
21,GCTGACGA,0.116 ± 0.034
22,GCGTGCGA,0.285 ± 0.02
23,GGAGGAAA,-0.249 ± 0.059
24,GTGCTGCA,0.0668 ± 0.059
25,ATCAGGGC,-0.084 ± 0.023

row,Sequence,PBM E-score of 8-mer
1,GATAACAC,0.4169 ± 0.0014
2,CAAGAATG,-0.104 ± 0.029
3,ACATACAC,0.0835 ± 0.075
4,AGGTATCC,-0.121 ± 0.035
5,AGGGACTA,-0.0767 ± 0.046
6,ATGGTGAC,0.262 ± 0.049
7,AATTCCCG,-0.0976 ± 0.067
8,CAGAACTC,-0.153 ± 0.021
9,AATGATGG,-0.161 ± 0.091
10,AGACAAAA,-0.193 ± 0.081
11,ATGCTGGA,-0.328 ± 0.041
12,CACCGCAA,0.0187 ± 0.075
13,GCTCCTCC,-0.291 ± 0.022
14,GCACTCGC,0.168 ± 0.041
15,GCAGCGGA,-0.216 ± 0.026
16,AAGTGACA,0.458 ± 0.0065
17,AATCTCAA,-0.1 ± 0.067
18,CCACCTCA,0.229 ± 0.039
19,ACTTAGCA,0.207 ± 0.052
20,GGTGTTAC,0.4752 ± 0.00012
21,AACACGAC,0.13 ± 0.049
22,GAGCTTCC,-0.248 ± 0.027
